# Measured values taken from PubChem BioAssay AID686978 (National Center for Advancing Translational Sciences (NCATS), 2013).
# Screen size: about 420,000 compounds; about 64,000 (15%) were called active. Inconclusive means that the source gave no clear call. Such entries were picked first, then a sample of the others. The call rests on the fitted dose curve; in most records, active means well fitted inhibition curve with a large enough effect; inconclusive means small, poorly fitted or top-dose-only effect; inactive means flat fitted curve, though single readings scatter. No potency is given beside an inconclusive call; the fits are too rough.
# Experiment: qHTS for Inhibitors of human tyrosyl-DNA phosphodiesterase 1 (TDP1): qHTS in cells in absence of CPT; further: nearly all actives have a fitted effect of over 55% in size
# Details: DT40 Tdp1-/- hTDP1 cells, no CPT, ATP luminescence, 48 h; activity change, negative = growth inhibition: at 46.2 µM (top of the series) unless noted
# Method in brief: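 Camptothecin absent (DMSO only). Human TDP1-complemented DT40 knockout cells, 400 cells/well, 37 °C for minimum 48 hr; ATP measured via CellTiter-Glo, 30 min dark incubation, luminescence.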
# On the % scale 0 is the no-effect control and ±100 the full control effect; potency means the concentration at half of the fitted maximal effect; tags describe the fitted curve by direction and shape.
SMILES,Potency,"activity change, negative = growth inhibition"
COc1ccc(C)cc1NC(=O)C(OC(=O)c1cccc(S(=O)(=O)N(C)c2ccccc2)c1)c1ccccc1 (configuration not stated),"inconclusive [inhibitor, partial curve]",
CCn1c(=O)c2sccc2n2c(CCCC(=O)NCCc3ccc(S(N)(=O)=O)cc3)nnc12,inactive,
COc1ccc(N2CCN(C(=O)Cc3ccc(Br)cc3)CC2)cc1,"inconclusive [inhibitor, single point]",
O=C(/C=C/c1ccc([N+](=O)[O-])cc1)NCCOc1ccc(F)cc1,"inconclusive [inhibitor, single point]",
COc1ccc([C@H]2C[C@H](O)C[C@@H](CCn3cc(-c4ccccc4)nn3)O2)cc1,"inconclusive [inhibitor, single point]",
Cc1cc(C(F)(F)F)c(C#N)c(SCC(=O)Nc2nc3ccccc3s2)n1,active: 18.4 µM,
O=C(Nc1ncccc1O)c1ccc(NS(=O)(=O)c2ccc3[nH]c(=O)[nH]c3c2)cc1,"inconclusive [inhibitor, full curve, poor fit]",
CCOC(=O)N1CCN(S(=O)(=O)c2ccc(C(=O)Nc3nc4c(s3)CC(C)CC4)cc2)CC1 (configuration not stated),"inconclusive [inhibitor, single point]",
COc1cccc(-c2noc(C3CCCN(C(=O)c4ccc(F)cc4)C3)n2)c1 (configuration not stated),"inconclusive [inhibitor, single point]",
CC1CC(CC(=O)Nc2nc(-c3ccccc3)cs2)C(=O)O1 (configuration not stated),"inconclusive [inhibitor, single point]",
C[C@@H]1CN([C@H](C)CO)C(=O)CCCn2cc(nn2)CO[C@H]1CN(C)C(=O)Nc1ccc2c(c1)OCO2,inactive,
O=C(C=P(c1ccccc1)(c1ccccc1)c1ccccc1)c1ccccc1-c1ccccc1C(=O)C=P(c1ccccc1)(c1ccccc1)c1ccccc1,active: 0.58 µM,
O=C(NCC1CCOCC1)c1cc(COc2cccc(C(F)(F)F)c2)on1,"inconclusive [inhibitor, single point]",
Cc1cccnc1C(NC(=O)C1CCN(CCOc2ccc(Cl)cc2Cl)CC1)c1ccc(Cl)cc1 (configuration not stated),active: 7.31 µM,
CCOc1ccc2oc(C(=O)NNC(=O)c3ccccc3O)c(C)c2c1,active: 25.9 µM,
O=C(Oc1c(-c2ccccc2)oc2ccccc2c1=O)c1ccccc1,active: 10.3 µM,
CN(C)c1ccc(-c2nc(NCc3cccnc3)c3ccccc3n2)cc1,active: 4.11 µM,
O=C(NNc1nc(N2CCOCC2)nc(N2CCOCC2)n1)c1ccccc1,,inconclusive: -30.2% [inhibitor]
Oc1ccc(F)c2cccnc12,active: 14.6 µM,
Cc1ccc2ccc(C(Nc3ccccc3)c3ccc(F)cc3)c(O)c2n1 (configuration not stated),active: 5.8 µM,
CC1CCc2nn(CC(=O)NC3CCCC(C)C3C)cc2C1 (configuration not stated),"inconclusive [inhibitor, single point]",
O=C(Nc1ccc(Br)cc1)Nc1cnccn1,"inconclusive [inhibitor, single point]",
C=CCn1c(SCC(=O)O)nnc1-c1ccc(C(C)(C)C)cc1,"inconclusive [inhibitor, full curve, poor fit]",
Cc1cc(N2CCN(c3cccc(C)c3C)CC2)n2cnnc2n1,"inconclusive [inhibitor, single point]",

SMILES,Potency,"activity change, negative = growth inhibition"
COc1ccc(C(=O)NCC(=O)N2CC=C(c3ccccc3)CC2)cc1OC,active: 25.9 µM,
COc1ccc(S(=O)(=O)N2CCCCC2)cc1NC(=O)C1COc2ccccc2O1 (configuration not stated),active: 23.1 µM,
C=CCn1cc(/C=C/c2cc[n+](C)cc2)c2ccccc21,active: 0.58 µM,
CCOC(=O)Cc1csc(/N=C/c2c(O)n(-c3ccc(C)cc3C)c(=O)c3ccccc23)n1,active: 16.4 µM,
CC(C)CN(CC(C)C)C(=O)CS(=O)(=O)Cc1ccccc1,inactive,
Cc1nnc2sc(-c3ccc(NC(=O)c4ccc(-c5ccc(Cl)cc5Cl)o4)cc3)nn12,"inconclusive [inhibitor, single point]",
CCCN(CC1CC1)C(=O)COC(=O)c1oc2ccc(OCC)cc2c1C,active: 6.51 µM,
CN(Cc1ccccc1F)Cc1cc(=O)oc2cc(O)c(Cl)cc12,active: 16.4 µM,
CC(NC(=O)c1ccccc1NC(=O)c1ccccc1)C(=O)N1CCOCC1 (configuration not stated),inactive,
Cc1ccccc1OCC(=O)N/N=C/c1cccn1C,inactive,
COC(=O)c1ccc([C@@H]2C[C@H]3CN(Cc4cccnc4)C(=O)[C@]34CCCN24)cc1,inactive,
CC(=O)c1ccc(S(=O)(=O)N(C)CCCC(=O)NCc2ccc3c(c2)OCO3)cc1,"inconclusive [inhibitor, partial curve]",
Cc1c(Br)ccc(NC(=O)c2ccccc2[N+](=O)[O-])c1C,"inconclusive [inhibitor, partial curve, poor fit]",
COc1ccc(CCNC(=O)COC(=O)c2cnc(Cl)c(Cl)c2)cc1,inactive,
CN(C)c1ccc(/C=N/c2cc(-c3ccccc3)nn2-c2ccccc2)cc1,"inconclusive [inhibitor, single point]",
O=C(O)CNS(=O)(=O)c1ccc2c(c1)Cc1cc(S(=O)(=O)NCC(=O)O)ccc1-2,inactive,
Cc1cnn(CCC(=O)NNC(=S)Nc2ccccc2)c1,active: 17.8 µM,
COC(=O)c1ccc2c(=O)n(CCCCCC(=O)N3CCN(c4ccc(Cl)cc4)CC3)c(=O)[nH]c2c1,"inconclusive [inhibitor, single point]",
CCN(C1CCCCC1)S(=O)(=O)c1ccc(S(=O)(=O)NCCc2ccncc2)cc1,inactive,
O=C(CNC(=O)c1ccco1)NNC(=O)c1n[nH]c(=O)c2ccccc12,inactive,
COc1ccc(C=C(C(=O)c2ccccc2)C(=O)c2ccccc2)cc1,"inconclusive [inhibitor, single point]",
CCOCCCNCC(=O)N1CCN(S(=O)(=O)c2ccc(C)cc2)CC1,inactive,
Cc1ccc(CCNC(=O)CCn2nc(-c3ccc(C)cc3)ccc2=O)cc1,"inconclusive [inhibitor, single point]",
